Test results published in PubChem BioAssay (Tox21).
Values joined by “and” are separate entries in the source; they are usually repeats but may differ in a detail not shown here. Equal entries are not always repeated. Inconclusive results, whose numbers are uncertain, are shown with a selection of clear calls. For some assays here: A potency beside an inconclusive call is a rough fit, not a confirmed value. Some compounds were tested as several samples or in several runs, with calls that do not always agree. Active and inactive are the calls of the source. Unless noted, the call rests on the fitted dose curve; in most records, active means well fitted curve in the direction sought with a large enough effect in the repeat runs; inconclusive means weak or mixed curves; inactive means no such curve, though single readings can be large; an effect the other way counts as inactive or inconclusive.

Key:
[1] = molecular target: Peroxisome proliferator-activated receptor gamma (Homo sapiens) (UniProt P37231); test: qHTS assay to identify small molecule antagonists of the peroxisome proliferator-activated receptor gamma (PPARg) signaling pathway (AID 743191; calls by dose curve; further: nearly all actives have a fitted effect of over 30% in size; further: potency means the concentration at half of the fitted maximal effect; on ratio activity, negative = inhibition: on the % scale 0 is the no-effect control and ±100 the full control effect); conditions: HEK293H PPARg-UAS-bla, beta-lactamase ratio, antagonist, 17 h; ratio activity, negative = inhibition: at 62.6 µM (top of the series) unless noted
In short: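 GeneBLAzer PPARg UAS-bla HEK293H cells carrying a UAS-driven beta-lactamase reporter were plated at 3000 cells/well, preincubated 5 h at 37C, then given compound for 17 h at 37C; LiveBLAzer B/G FRET substrate was read after 1 h at room temperature.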

[2] = qHTS assay for small molecule agonists of the antioxidant response element (ARE) signaling pathway (AID 743202; active means well fitted activation curve with a large enough effect in the signal ratio in the repeat runs, not every such curve was filed as active; inconclusive means weak or mixed curves, or effect the other way; inactive means no such curve, though single readings can be large or run the other way; the % refers to the signal ratio; further: potency means the concentration at half of the fitted maximal effect; on activation: on the % scale 0 is the no-effect control and ±100 the full control effect); conditions: HepG2 ARE-bla reporter, beta-lactamase FRET, 16 h; activation: at 73.3 µM (top of the series) unless noted
In short: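 Following a 16 h, 37 C exposure of reporter HepG2 cells (ARE-driven beta-lactamase, 2,000 cells/well) to compounds, FRET substrate was applied for 2 h at room temperature and fluorescence intensity recorded.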

[3] = qHTS assay to identify small molecule agonists of the farnesoid-X-receptor (FXR) signaling pathway - cell viability counter screen (AID 743218); conditions: FXR-bla HEK293T viability, CellTiter-Glo luminescence, 16 h; viability change, negative = cytotoxic: at 62.6 µM (top of the series) unless noted; further: nearly all actives have a fitted effect of over 45% in size; further: potency means the concentration at half of the fitted maximal effect
In short: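 Viability counter screen in the same wells: CellTiter-Glo luminescence, 30 min room-temperature incubation, measured after the beta-lactamase read. Cells were GeneBLAzer FXR-UAS-bla HEK 293T, compound-treated 16 h at 37C.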

[4] = qHTS assay to identify small molecule antagonists of the peroxisome proliferator-activated receptor gamma (PPARg) signaling pathway - cell viability counter screen (AID 743194); conditions: PPARg-bla HEK293H viability, CellTiter-Glo luminescence, 17 h, co-treated with 50 nM rosiglitazone; activity change, negative = cytotoxicity: at 62.6 µM (top of the series) unless noted; further: potency means the concentration at half of the fitted maximal effect; nearly all actives have a fitted effect of over 55% in size
In short: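 PPARg-UAS-bla HEK293H cells were plated, rested 5 h at 37 C, then treated with compounds plus rosiglitazone (50 nM final) for 17 h at 37 C; viability was then read by CellTiter-Glo luminescence after 30 min at room temperature.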

[5] = qHTS assay for small molecule agonists of the antioxidant response element (ARE) signaling pathway - cell viability counter screen (AID 743203; calls by dose curve; further: nearly all actives have a fitted effect of over 55% in size; further: potency means the concentration at half of the fitted maximal effect); conditions: ARE-bla HepG2 viability, CellTiter-Glo luminescence, 16 h; viability change, negative = cytotoxic: at 73.3 µM (top of the series)
In short: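 Viability counter screen: CellTiter-Glo luminescence, read after 30 min at room temperature, in ARE-bla HepG2 wells. Compound exposure lasted 16 h at 37C/5% CO2, following a 5 h pre-incubation of the cells after plating.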

[6] = qHTS assay for small molecule activators of the heat shock response signaling pathway (AID 743210; active means well fitted activation curve with a large enough effect in the signal ratio in the repeat runs, with a control signal flat, not every such curve was filed as active; inconclusive means weak or mixed curves; the % refers to the signal ratio; further: potency means the concentration at half of the fitted maximal effect); conditions: HeLa HSE-bla reporter, beta-lactamase ratio, 5 h; activation: at 62.6 µM (top of the series)
In short: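 Heat shock element–beta-lactamase HeLa reporter cells; qHTS with compounds for 5 h at 37 C; detection by FRET substrate fluorescence after 2.5 h at RT.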

[7] = qHTS assay to identify small molecule agonists of the peroxisome proliferator-activated receptor delta (PPARd) signaling pathway - cell viability counter screen (AID 743211); conditions: PPARd-bla HEK293H viability, CellTiter-Glo luminescence, 17 h; activity change, negative = cytotoxicity: at 62.6 µM (top of the series); further: potency means the concentration at half of the fitted maximal effect; nearly all actives have a fitted effect of over 55% in size
In short: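 PPARd-bla HEK293H cells (3000/well) were pre-incubated 5 h at 37 C, then exposed to compound for 17 h at 37 C. After 2 h with LiveBLAzer substrate, CellTiter-Glo was added to the same wells; luminescence read after 30 min at room temperature.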

[8] = molecular target: Peroxisome proliferator-activated receptor delta (Homo sapiens) (UniProt Q03181); test: qHTS assay to identify small molecule agonists of the peroxisome proliferator-activated receptor delta (PPARd) signaling pathway (AID 743212; calls by dose curve; further: potency means the concentration at half of the fitted maximal effect); conditions: HEK293H PPARd-UAS-bla, beta-lactamase FRET ratio, 17 h; activation: at 62.6 µM (top of the series) unless noted
In short: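 Beta-lactamase reporter read by fluorescence (LiveBLAzer B/G FRET, 2 h, room temperature). Test agents, in DMSO, incubated at 37 C with PPARd-bla HEK293H cells.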

[9] = qHTS assay to identify small molecule antagonists of the peroxisome proliferator-activated receptor delta (PPARd) signaling pathway - cell viability counter screen (AID 743213); conditions: PPARd-bla HEK293H viability, CellTiter-Glo luminescence, 17 h; viability change, negative = cytotoxic: at 62 µM (top of the series) unless noted; further: potency means the concentration at half of the fitted maximal effect; nearly all actives have a fitted effect of over 50% in size
In short: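 Same-well viability: cells pre-incubated 5 h, dosed with compound plus 300 nM L165041, kept 17 h at 37 C, FRET substrate 2 h RT, then CellTiter-Glo 30 min RT and luminescence.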

[10] = molecular target: Peroxisome proliferator-activated receptor delta (Homo sapiens) (UniProt Q03181); test: qHTS assay to identify small molecule antagonists of the peroxisome proliferator-activated receptor delta (PPARd) signaling pathway (AID 743215; active means well fitted inhibition curve with a large enough effect in the signal ratio in the repeat runs, not every such curve was filed as active; inconclusive means weak or mixed curves, or effect the other way; inactive means no such curve, though single readings can be large or run the other way; the % refers to the signal ratio;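 further: cells stimulated with agonist L165041 at 300 nM final during compound exposure; on the % scale 0 is the no-effect control and ±100 the full control effect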); conditions: HEK293H PPARd-UAS-bla, beta-lactamase FRET ratio, antagonist, 17 h; ratio activity, negative = inhibition: at 62 µM (top of the series) unless noted
In short: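 Agonist L165041 (300 nM final) added with compound to PPARd-bla HEK293H UAS-bla reporter cells; 17 h incubation at 37 C. Read-out: LiveBLAzer FRET substrate, 2 h at room temperature, fluorescence intensity.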

[11] = molecular target: Bile acid receptor (Homo sapiens) (UniProt Q96RI1); test: qHTS assay to identify small molecule antagonists of the farnesoid-X-receptor (FXR) signaling pathway (AID 743217; active means well fitted inhibition curve with a large enough effect in the signal ratio in the repeat runs, not every such curve was filed as active; inconclusive means weak or mixed curves, or effect the other way; inactive means no such curve, though single readings can be large or run the other way; the % refers to the signal ratio; further: potency means the concentration at half of the fitted maximal effect); conditions: HEK293T FXR-UAS-bla, beta-lactamase ratio, CDCA-stimulated, 16 h; activity change, negative = inhibition: at 62.6 µM (top of the series) unless noted
In short: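 Antagonist mode: chenodeoxycholic acid at 50 uM final stimulates a UAS-driven beta-lactamase reporter in HEK 293T FXR-bla cells during 16 h, 37C compound exposure. Read-out is FRET substrate fluorescence after 2 h at room temperature.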

[12] = molecular target: Bile acid receptor (Homo sapiens) (UniProt Q96RI1); test: qHTS assay to identify small molecule agonists of the farnesoid-X-receptor (FXR) signaling pathway (AID 743220; active means well fitted activation curve with a large enough effect in the signal ratio in the repeat runs, not every such curve was filed as active; inconclusive means weak or mixed curves, or effect the other way; the % refers to the signal ratio; further: on the % scale 0 is the no-effect control and ±100 the full control effect); conditions: HEK293T FXR-UAS-bla, beta-lactamase FRET ratio, 16 h
In short: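 FXR-UAS-bla HEK 293T cells carrying a UAS-driven beta-lactamase reporter were plated for 5 h at 37C/5% CO2, then exposed to DMSO-dissolved Tox21 10K compounds for 16 h at 37C. A LiveBLAzer B/G FRET substrate was loaded for 2 h at room temperature before fluorescence reading.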

[13] = qHTS assay to identify small molecule antagonists of the farnesoid-X-receptor (FXR) signaling pathway - cell viability counter screen (AID 743221; active means well fitted cell-killing curve with a large enough effect in the repeat runs, not every such curve was filed as active; inconclusive means weak or mixed curves, or effect the other way; inactive means no such curve, though single readings can be large or run the other way; further: potency means the concentration at half of the fitted maximal effect; nearly all actives have a fitted effect of over 50% in size); conditions: FXR-bla HEK293T viability, CellTiter-Glo luminescence, 16 h; activity change, negative = cytotoxicity: at 62.6 µM (top of the series)
In short: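 GeneBLAzer FXR-UAS-bla HEK 293T cells, compound plus chenodeoxycholic acid (50 uM final), 16 h at 37 C. CellTiter-Glo added to the same wells after the beta-lactamase read; luminescence read after 30 min at room temperature as viability.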

[14] = molecular target: Vitamin D3 receptor (Homo sapiens) (UniProt P11473); test: qHTS assay to identify small molecule agonists of the vitamin D receptor (VDR) signaling pathway (AID 743222; calls by dose curve; further: potency means the concentration at half of the fitted maximal effect); conditions: HEK293T VDR-UAS-bla, beta-lactamase FRET ratio, 16 h; activation: at 63.5 µM (top of the series) unless noted
In short: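 Agonist mode, beta-lactamase reporter: fluorescence from LiveBLAzer B/G FRET substrate (2 h, room temperature) read after 16 h compound treatment at 37 C of VDR-bla cells, which were pre-incubated 4 h after seeding.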

[15] = molecular target: Vitamin D3 receptor (Homo sapiens) (UniProt P11473); test: qHTS assay to identify small molecule antagonists of the vitamin D receptor (VDR) signaling pathway (AID 743223; active means well fitted inhibition curve with a large enough effect in the signal ratio in the repeat runs, not every such curve was filed as active; inconclusive means weak or mixed curves, or effect the other way; inactive means no such curve, though single readings can be large or run the other way; the % refers to the signal ratio; further: potency means the concentration at half of the fitted maximal effect); conditions: VDR-UAS-bla HEK293T, beta-lactamase FRET ratio, 16 h; activity change, negative = inhibition: at 61 µM (top of the series) unless noted
In short: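 VDR-bla cells were treated with compound plus 3 nM final 1alpha,25-dihydroxyvitamin D3 for 16 h at 37C. Beta-lactamase reporter read by B/G FRET substrate fluorescence after 2 h at room temperature. qHTS format.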

[16] = qHTS assay to identify small molecule agonists of the vitamin D receptor (VDR) signaling pathway - cell viability counter screen (AID 743224); conditions: VDR-bla HEK293T viability, CellTiter-Glo luminescence, 16 h; activity change, negative = cytotoxicity: at 62.6 µM (top of the series) unless noted; further: potency means the concentration at half of the fitted maximal effect; nearly all actives have a fitted effect of over 50% in size
In short: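 Counter screen run in the same wells as the VDR-bla reporter assay: CellTiter-Glo luminescence, 30 min at room temperature, after 16 h compound treatment at 37C of cells pre-plated for 4 h.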

[17] = qHTS assay to identify small molecule antagonists of the vitamin D receptor (VDR) signaling pathway - cell viability counter screen (AID 743225); conditions: VDR-bla HEK293T viability, CellTiter-Glo luminescence, 16 h; viability change, negative = cytotoxic: at 61 µM (top of the series) unless noted; further: potency means the concentration at half of the fitted maximal effect; nearly all actives have a fitted effect of over 50% in size
In short: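 VDR-UAS-bla HEK 293T cells were plated and incubated 4 h at 37C, then dosed with compound plus 3 nM (final) 1-alpha,25-dihydroxyvitamin D3 for 16 h. After the 2 h beta-lactamase read, viability in the same wells was read as CellTiter-Glo luminescence after 30 min at room temperature.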
Tags describe the fitted curve by direction and shape or compound fluorescence and quenching.

Chain of UniProt P37231 (P37231 whole entry, looked up): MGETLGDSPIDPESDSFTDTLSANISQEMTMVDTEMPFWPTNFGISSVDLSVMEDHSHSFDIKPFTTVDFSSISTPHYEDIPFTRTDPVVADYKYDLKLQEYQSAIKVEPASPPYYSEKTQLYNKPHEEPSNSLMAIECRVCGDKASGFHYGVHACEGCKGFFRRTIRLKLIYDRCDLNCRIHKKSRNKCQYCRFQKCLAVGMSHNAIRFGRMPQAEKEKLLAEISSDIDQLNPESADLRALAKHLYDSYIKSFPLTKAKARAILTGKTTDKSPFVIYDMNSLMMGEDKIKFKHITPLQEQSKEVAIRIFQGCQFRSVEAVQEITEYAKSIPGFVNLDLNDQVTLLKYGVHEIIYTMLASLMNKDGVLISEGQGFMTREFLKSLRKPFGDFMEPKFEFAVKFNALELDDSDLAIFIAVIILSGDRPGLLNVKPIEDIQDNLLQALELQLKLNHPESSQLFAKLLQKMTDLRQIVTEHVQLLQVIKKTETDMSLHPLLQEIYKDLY
Chain of UniProt Q96RI1 (Q96RI1 whole entry, looked up): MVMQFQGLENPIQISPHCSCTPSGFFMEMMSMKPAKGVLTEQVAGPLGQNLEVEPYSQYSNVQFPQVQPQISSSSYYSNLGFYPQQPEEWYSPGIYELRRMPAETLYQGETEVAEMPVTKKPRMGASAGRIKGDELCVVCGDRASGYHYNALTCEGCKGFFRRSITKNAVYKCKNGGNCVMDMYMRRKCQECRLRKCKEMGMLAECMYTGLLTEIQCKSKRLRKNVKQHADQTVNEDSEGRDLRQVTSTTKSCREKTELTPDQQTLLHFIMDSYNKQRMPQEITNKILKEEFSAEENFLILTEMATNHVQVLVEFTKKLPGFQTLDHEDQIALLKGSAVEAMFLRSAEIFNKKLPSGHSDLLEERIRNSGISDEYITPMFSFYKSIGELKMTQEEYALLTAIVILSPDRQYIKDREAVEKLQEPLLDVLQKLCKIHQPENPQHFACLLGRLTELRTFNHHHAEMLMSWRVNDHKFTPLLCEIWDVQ
Chain of UniProt P11473 (P11473 whole entry, looked up): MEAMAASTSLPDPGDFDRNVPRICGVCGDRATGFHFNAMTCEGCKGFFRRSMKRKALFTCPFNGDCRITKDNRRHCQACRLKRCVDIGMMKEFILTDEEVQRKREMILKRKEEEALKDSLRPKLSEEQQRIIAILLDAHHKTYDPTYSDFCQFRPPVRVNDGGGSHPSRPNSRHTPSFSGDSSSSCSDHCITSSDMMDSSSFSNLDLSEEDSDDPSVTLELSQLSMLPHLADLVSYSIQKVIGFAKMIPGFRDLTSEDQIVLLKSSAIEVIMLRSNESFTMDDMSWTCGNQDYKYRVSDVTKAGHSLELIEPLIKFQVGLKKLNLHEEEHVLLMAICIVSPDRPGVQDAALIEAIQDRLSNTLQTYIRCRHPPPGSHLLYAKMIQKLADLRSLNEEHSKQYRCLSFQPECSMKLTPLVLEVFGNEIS
Chain of UniProt Q03181 (Q03181 whole entry, looked up): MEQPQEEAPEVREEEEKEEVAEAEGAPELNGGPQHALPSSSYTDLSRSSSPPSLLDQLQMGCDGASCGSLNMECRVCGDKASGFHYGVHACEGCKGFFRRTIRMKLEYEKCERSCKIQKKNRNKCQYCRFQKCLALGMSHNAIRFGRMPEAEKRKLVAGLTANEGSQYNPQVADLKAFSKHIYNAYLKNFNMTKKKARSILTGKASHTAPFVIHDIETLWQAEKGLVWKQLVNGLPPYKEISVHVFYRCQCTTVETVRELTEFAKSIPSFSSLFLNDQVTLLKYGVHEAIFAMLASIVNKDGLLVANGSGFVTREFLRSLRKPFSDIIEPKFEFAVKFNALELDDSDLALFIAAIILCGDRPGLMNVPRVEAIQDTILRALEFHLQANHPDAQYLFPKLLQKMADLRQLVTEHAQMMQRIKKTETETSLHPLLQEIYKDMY

Structure (SMILES): COCCCN
- Potency [1]: inconclusive: 61.6 µM [activator, partial curve, poor fit]
- ratio activity, negative = inhibition [1]: inconclusive: 20.3%
- Potency [2]: inactive
- Potency [3]: inactive

Structure (SMILES): BrC1CCC(Br)C(Br)CCC(Br)C(Br)CCC1Br (stereo unspecified)
- Potency [1]: inconclusive: 24.4 µM [activator, single point]
- ratio activity, negative = inhibition [1]: inconclusive: -6.12%
- Potency [4]: inconclusive: 17.3 µM [cytotoxic, partial curve, poor fit] and active: 16.5 µM
- Potency [2]: inconclusive: 9.65 µM [rising, full curve]
- activation [2]: inconclusive: 16.7%
- Potency [5]: inconclusive: 15.3 µM [cytotoxic, partial curve, poor fit]
- viability change, negative = cytotoxic [5]: inconclusive: -42.8% [cytotoxic]
- Potency [6]: inconclusive: 30.8 µM and inconclusive: 38.4 µM
- Potency [7]: inconclusive: 21.8 µM [cytotoxic, partial curve, poor fit] and active: 26.1 µM
- Potency [8]: inconclusive: 18.5 µM
- Potency [9]: inconclusive: 3.87 µM [cytotoxic, full curve] and active: 10.4 µM
- ratio activity, negative = inhibition [10]: inconclusive: -16.9%
- Potency [11]: inconclusive: 23.3 µM [rising, partial curve, poor fit]
- activity change, negative = inhibition [11]: inconclusive: 10.5%
- Potency [3]: inactive and active: 20.8 µM
- activation ([12]; activation: at 62.6 µM (top of the series) unless noted): inconclusive: -3.51%
- activation ([12]; at 62.6 µM (top of the series)): inactive: -0.278%
- Potency [13]: inconclusive: 18.5 µM [falling, partial curve, poor fit]
- Potency [14]: inconclusive: 10.4 µM [fluorescent, partial curve]
- Potency [15]: inconclusive: 20.8 µM [fluorescent, partial curve, poor fit]
- Potency [16]: inconclusive: 21.8 µM [cytotoxic, single point] and active: 18.5 µM
- Potency [17]: inconclusive: 12.3 µM [cytotoxic, partial curve, poor fit] and active: 16.5 µM
